Data as given in a collection of fitness landscapes (doi:10.1016/j.celrep.2020.107928).
In all, about 81,000 sequences were measured (“one-hybrid fitness for binding NBS DNA”: median about -0.1, highest 2% from about 0.36 on). Some of the results follow.

B1: Caulobacter ParB omega fusion; a variant is named by its letters at X, in order, B8GW30 (parent)
chain: MESVVVGEPGMSEGRRGLGRGLSALLGEVDAAPAQAPGEQLGGSREAPIEILQRNPDQPRRTFREEDLEDLSNSIREKGVLQPILVRPSPDTAGEYQIVAGERAWRAAQRAGLKTVPIMVRELDDLAVLEIGIIENVQRADLNVLEEALSYKVLMEKFERTQENIAQTIGKSXSHVANXMRLLXLPDEVQSYLVSGELTAXHARAIAAAADPVALAKQIIEGGLSVRETEALARKAPNLSAGKSKGGRPPRVKDTDTQALESDLSSVLGLDVSIDHRGSTGTLTITYATLEQLDDLCNRLTRGI

Variants of: B1
Experiment: one-hybrid fitness for binding NBS DNA (the Noc-binding site; scaled: cognate 1, non-cognate 0); higher = stronger binding
Conditions: with NBS DNA site
Procedure, shortened: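 Pre- and post-selection plasmids were Illumina-sequenced, three replicate libraries were pooled, and any variant with under 10 reads was removed. The libraries were Caulobacter ParB with four specificity codons randomised, selected in E. coli USO through a HIS3 reporter whose site is 19 bp from the promoter. Cells grew 48 hours at 37°C on M9 without histidine, with 0.1 mM IPTG and 5 mM 3-AT. Fitness is the log change in variant-to-wild-type read ratio, rescaled against cognate and non-cognate.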

Point of comparison: HRLR, “one-hybrid fitness for binding NBS DNA” value 0.213. Against it:
- SADK — lower, ≤ 0.2
- AEYA — lower, ≤ 0.2
- LSSW — lower, ≤ 0.2
- SEQC — lower, ≤ 0.2
- QTPW — lower, ≤ 0.2
- TIMR — lower, ≤ 0.2
- NRQT — lower, ≤ 0.2
- NEWS — lower, ≤ 0.2
- EPGN — lower, ≤ 0.2
- FLDS — lower, ≤ 0.2
- TSRV — lower, ≤ 0.2
- ISIS — lower, ≤ 0.2
- LMHC — lower, ≤ 0.2
- FTLR — lower, ≤ 0.2
- YGDC — lower, ≤ 0.2
- SYAT — lower, ≤ 0.2
- AVVD — lower, ≤ 0.2
- PKQG — lower, ≤ 0.2
- ALDQ — lower, ≤ 0.2
- NRRV — lower, ≤ 0.2
- SSQW — lower, ≤ 0.2
- YKRL — lower, ≤ 0.2
- WWPY — lower, ≤ 0.2
- HLTW — lower, ≤ 0.2
- YVWI — lower, ≤ 0.2
- QNDR — lower, ≤ 0.2
- DCRN — lower, ≤ 0.2
- WAAG — lower, ≤ 0.2
- LPSS — lower, ≤ 0.2
- HGLE — lower, ≤ 0.2
- WCKY — lower, ≤ 0.2
- PTCG — lower, ≤ 0.2
- PDKG — lower, ≤ 0.2
- TDAY — lower, ≤ 0.2
- VQCG — lower, ≤ 0.2
- HYST — lower, ≤ 0.2
- SNCS — lower, ≤ 0.2
- TWLR — lower, ≤ 0.2
- WKSM — lower, ≤ 0.2
- EYGF — lower, ≤ 0.2
- IDNA — lower, ≤ 0.2
- LGTG — lower, ≤ 0.2
- RKHD — lower, ≤ 0.2
- LIDR — lower, ≤ 0.2
- DTFR — lower, ≤ 0.2
- QKNR — higher, 0.747
- IAPT — lower, ≤ 0.2
- SQNG — lower, ≤ 0.2
- QYTT — higher, 0.401
- FLLM — lower, ≤ 0.2
- AWHR — lower, ≤ 0.2
- TLYC — lower, ≤ 0.2
- QDNS — lower, ≤ 0.2
- LYAT — lower, ≤ 0.2
- DGVI — lower, ≤ 0.2
- QETH — lower, ≤ 0.2
- DPNF — lower, ≤ 0.2
- SHPW — lower, ≤ 0.2
- RTTF — lower, ≤ 0.2
- QPYL — lower, ≤ 0.2
- TEVL — lower, ≤ 0.2
- LFTI — lower, ≤ 0.2
- RWHQ — lower, ≤ 0.2
- ENGR — lower, ≤ 0.2
- NSKG — lower, ≤ 0.2
- NAWS — lower, ≤ 0.2
- CRKL — lower, ≤ 0.2
- SRVG — lower, ≤ 0.2
- ITRY — lower, ≤ 0.2
- DLNS — lower, ≤ 0.2
- RICG — lower, ≤ 0.2
- IVTR — lower, ≤ 0.2
- YPHH — lower, ≤ 0.2
- IFRT — lower, ≤ 0.2
- PEKV — lower, ≤ 0.2
- YNNH — lower, ≤ 0.2
- SVQR — lower, ≤ 0.2
- ITAL — lower, ≤ 0.2
- RQHI — lower, ≤ 0.2
- KSHV — lower, ≤ 0.2
- ISYR — lower, ≤ 0.2
- CYLL — lower, ≤ 0.2
- CRPK — lower, ≤ 0.2
- TTKF — lower, ≤ 0.2
- RRGA — higher, 0.664
- MIVW — lower, ≤ 0.2
- AAQC — lower, ≤ 0.2
- KARS — lower, ≤ 0.2
- VCSH — lower, ≤ 0.2
- MWYC — lower, ≤ 0.2
- RDIW — lower, ≤ 0.2
- AQQL — lower, ≤ 0.2
- PRWT — lower, ≤ 0.2
- MRHG — lower, ≤ 0.2
- KIPN — lower, ≤ 0.2
- PKEC — lower, ≤ 0.2
- GCTP — lower, ≤ 0.2
- GKLG — lower, ≤ 0.2
- PDQR — lower, ≤ 0.2
- RCWY — lower, ≤ 0.2
- LLAW — lower, ≤ 0.2
- CDTF — lower, ≤ 0.2
- DALL — lower, ≤ 0.2
- FSDI — lower, ≤ 0.2
- WFAS — lower, ≤ 0.2
- NSRN — lower, ≤ 0.2
- CPPT — lower, ≤ 0.2
- LFLC — lower, ≤ 0.2
- PTKM — lower, ≤ 0.2
- RTFS — higher, 0.339
- WKLD — lower, ≤ 0.2
- YNRF — lower, ≤ 0.2
- THTL — lower, ≤ 0.2
- CFPH — lower, ≤ 0.2
- RYLM — lower, ≤ 0.2
- DQCG — lower, ≤ 0.2
- FLFI — lower, ≤ 0.2
- GKSY — lower, ≤ 0.2
- TASL — lower, ≤ 0.2
- QMMY — lower, ≤ 0.2
- GFLW — lower, ≤ 0.2
- RPVM — lower, ≤ 0.2
- ATMF — lower, ≤ 0.2
- THEY — lower, ≤ 0.2
- TRQT — higher, 0.327
- SSDS — lower, ≤ 0.2
- CVGK — lower, ≤ 0.2
- GSLD — lower, ≤ 0.2
- AMWC — lower, ≤ 0.2
- FMNG — lower, ≤ 0.2
- LGLR — lower, ≤ 0.2
- PWTW — lower, ≤ 0.2
- WVNC — lower, ≤ 0.2
- VSRW — lower, ≤ 0.2
- ASTS — lower, ≤ 0.2
- QDTK — lower, ≤ 0.2
- TPFC — lower, ≤ 0.2
- AIRY — lower, ≤ 0.2
- TWES — lower, ≤ 0.2
- MKAC — lower, ≤ 0.2
- LITQ — lower, ≤ 0.2
- RPVQ — higher, 0.397
- RKEV — lower, ≤ 0.2
- SKMQ — lower, ≤ 0.2
- MWNS — lower, ≤ 0.2
- GHYT — lower, ≤ 0.2
- IAPE — lower, ≤ 0.2
- VFSN — lower, ≤ 0.2
- ITMC — lower, ≤ 0.2
- APWE — lower, ≤ 0.2
- KCMT — lower, ≤ 0.2
- ETSA — lower, ≤ 0.2
